# Laboratory results taken from PubChem BioAssay AID624296 (National Center for Advancing Translational Sciences (NCATS), 2012).
# About 9,900 (2.8%) of roughly 350,000 compounds were called active. The inconclusive results got no clear call from the source; some entries with a clear call stand among them for comparison. Calls follow the shape of the dose curve; as a rule, active = well fitted activation curve with a large enough effect; inconclusive = small, poorly fitted or top-dose-only effect; inactive = no such curve, though single readings can be large or run the other way. No potency is given beside an inconclusive call; the fits are too rough.
# Experiment: A quantitative high throughput screen for small molecules that induce DNA re-replication in MCF 10a normal breast cells. Also: nearly all actives have a fitted effect of over 50% in size.
# Conditions: MCF 10A DNA re-replication, Hoechst nuclear intensity, 48 h; series mostly up to 46.1 µM
# Potency is read from the fitted curve at half-maximal effect; tags tell the direction and shape of the fitted curve.
row,Compound,Potency
1,O=C(Cn1ncc(Cl)c(Cl)c1=O)N1CCN(S(=O)(=O)c2ccc3ccccc3c2)CC1,"inconclusive [activator, partial curve, poor fit]"
2,O=C(Cc1noc2ccccc12)NNC(=S)Nc1ccccc1,inactive
3,COc1cccc(-c2nnc(SC(C(=O)c3c[nH]c4ccccc34)c3ccccc3)n2C)c1 (stereo not given),"inconclusive [activator, partial curve, poor fit]"
4,CCN(CC)CCCNc1ccc(-c2nnc(-c3ccc(OCC(C)C)cc3)o2)cn1,"inconclusive [activator, full curve]"
5,C/C(=N\NC1=NCCN1)c1ccc(Cl)cc1,"inconclusive [activator, single point]"
6,Cc1nn(-c2ccccc2)c2nc(-c3ccncc3)cc(C(=O)NCc3ccco3)c12,"inconclusive [activator, single point]"
7,Cc1sc(NC(=O)c2ccco2)nc1-c1ccc2c(c1)CC(C)N2C(=O)C1CC1 (stereo not given),active: 5.01 µM
8,COc1cccc(NCCC(=O)c2cccc([N+](=O)[O-])c2)c1,"inconclusive [activator, single point]"
9,O=C(Nc1ccccc1N1CCCCC1)c1ccc(-c2cc(Cl)ccc2Cl)o1,inactive
10,CCN(CC)S(=O)(=O)c1cc(OC)c(Cl)cc1Cl,"inconclusive [activator, full curve, poor fit]"
11,O=C(/C=C/c1ccccc1)Nc1cccc(C(=O)NCCCc2ccccc2)c1,"inconclusive [activator, partial curve]"
12,C=CCNC(=O)/C(=C/c1ccccc1OCC)NC(=O)c1ccccc1,inactive
13,Cc1cc(Nc2nc(Cl)c(Cl)cc2Cl)n(-c2ccccc2)n1,"inconclusive [activator, single point]"
14,CCOc1cc(C(=O)NC(=S)Nc2nc(C)cc(C)n2)cc(OCC)c1OCC,inactive
15,C/C(=N\NC(=O)c1c(Cl)c(C)nn1C)c1cccc(NC(=O)c2cccc(F)c2)c1,"inconclusive [activator, partial curve, poor fit]"
16,O=C(CCn1c2c(c3ccccc31)CCCC2)NNC(=O)c1ccc([N+](=O)[O-])cc1,"inconclusive [activator, single point]"
17,NS(=O)(=O)c1cc(C(=O)NCC2CCCCC2)ccc1Cl,inactive
18,O=S(=O)(c1cccc2cnccc12)N1CCNCC1,"inconclusive [activator, full curve, poor fit]"
19,c1ccc(OCCSc2nc3ccccc3[nH]2)cc1,inactive
20,Cc1ccc(S(=O)(=O)Nc2ccc3c(c2)CCC3)cc1C,inactive
21,COc1ccc(-c2cc(-c3ccccc3)nc(Cl)n2)cc1OC,active: 23.1 µM
22,COc1ccc(CC2(CO)CCN(S(=O)(=O)c3c(C)nn(C)c3Cl)CC2)cc1,inactive
23,CC(C)(C)OC(=O)[C@H]1[C@H](c2ccc([N+](=O)[O-])cc2)C2(C(=O)c3ccccc3C2=O)C2c3ccccc3C=NN21 (stereo not given in full),"inconclusive [activator, partial curve, poor fit]"
24,O=C1C=C(O)CC(c2ccc(Cl)c(Cl)c2)C1 (stereo not given),active: 5.01 µM

row,Compound,Potency
1,Brc1ccc(OCc2nc(-c3ccccn3)n[nH]2)cc1,inactive
2,CSc1nnc(NC(=O)c2ccco2)s1,"inconclusive [activator, single point]"
3,O=C(CN1C(=O)NC2(CCCC2)C1=O)N1CCN(c2ccccc2Cl)CC1,inactive
4,CC(C)NC(=O)C(C)N1CCN(S(=O)(=O)c2ccc3ccccc3c2)CC1 (stereo not given),inactive
5,O=C(N/N=C/c1ccccc1)c1[nH]ncc1Br,inactive
6,COc1ccc(OCc2cc(C(=O)N3CCCC(O)C3)no2)c2ccccc12 (stereo not given),"inconclusive [activator, partial curve, poor fit]"
7,CC1CCN(S(=O)(=O)c2ccc(NC(=O)Cn3nnc(-c4ccccc4F)n3)cc2)CC1,inactive
8,COc1ccc(Nc2nc(NCc3ccco3)nc(N/N=C/c3ccccc3)n2)cc1,"inconclusive [activator, single point]"
9,Nc1nc(SCC(=O)Nc2ccccc2)nc2nc3c(cc12)CCCC3,"inconclusive [activator, single point]"
10,CC(C(=O)Nc1ccccn1)(c1ccccc1)c1ccccc1,"inconclusive [activator, single point]"
11,COc1ccc(CCNC(=O)Nc2cccs2)c(OC)c1,inactive
12,O=C(CSc1nc(NS(=O)(=O)c2ccccc2)cc(=O)[nH]1)Nc1ccccc1C(F)(F)F,"inconclusive [activator, partial curve, poor fit]"
13,OCC1(CCOc2ccccc2)CCN(Cc2cc(Cl)ccc2O)CC1,"inconclusive [activator, single point]"
14,FC(F)Oc1ccc(/C=N/n2c(Cc3ccc(Br)cc3)n[nH]c2=S)cc1,"inconclusive [activator, single point]"
15,O=C(C[C@H]1C[C@H](C(=O)N2CCCCC2)[C@@]2(CCc3ccccc3)c3[nH]c4cc(-c5ccco5)ccc4c3CCN2C1=O)NCCC1=CCCCC1,"inconclusive [activator, single point]"
16,CC(=O)CCN1CCOCC1,"inconclusive [activator, single point]"
17,COc1cccc(NC(=O)C(Sc2nnc(-c3ccncc3)n2-c2ccc(Cl)cc2)c2ccccc2)c1 (stereo not given),"inconclusive [activator, partial curve, poor fit]"
18,Cc1cc(C)n(-c2nc(-c3ccc(Cl)c(Cl)c3)cs2)n1,active: 7.08 µM
19,CCCCOc1ccccc1-c1ccccc1CN1[C@@H](C(C)C)COCCS1(=O)=O,"inconclusive [activator, partial curve, poor fit]"
20,Cc1ccc(-c2nn(-c3cccc(F)c3)cc2CN2CCN(c3ccccn3)CC2)o1,"inconclusive [activator, single point]"
21,C=CCOc1ccc(C2C(C#N)=C(N)N(Nc3ccccc3)C3=C2C(=O)CCC3)cc1OC (stereo not given),active: 23.1 µM
22,CC1(C)C(N(O)C(=O)Nc2ccc(Cl)cc2)N(c2ccc(Cl)cc2)C(=O)N1CC(=O)NN (stereo not given),"inconclusive [activator, partial curve]"
23,O=c1[nH]c(CN2CCN(c3ccccc3O)CC2)nc2scc(-c3ccccc3Cl)c12,inactive
24,CCOC(=O)c1sc(/N=C/Nc2nc(C)c(C(=O)OCC)s2)nc1C,"inconclusive [activator, full curve, poor fit]"

row,Compound,Potency
1,CN(C)/C=N/S(=O)(=O)c1cccn1-c1ncc(C(F)(F)F)cc1Cl,inactive
2,COc1ccc(C(=O)C2CCCN(Cc3cccn3-c3ccccn3)C2)cc1F (stereo not given),"inconclusive [activator, single point]"
3,CC(=O)Oc1cccc(N2C(=O)c3cccc4c([N+](=O)[O-])ccc(c34)C2=O)c1,active: 20.6 µM
4,CC(C)=CCOc1ccc([C@@H]2COc3c(ccc4c3C=CC(C)(C)O4)C2)c(O)c1,active: 20.6 µM
5,O=C1Nc2ccc(Cl)cc2/C1=C/C1CC=CCC1 (stereo not given),"inconclusive [activator, single point]"
6,O=C(Nc1ccc(N2CCOCC2)c(S(=O)(=O)Nc2ccccc2Cl)c1)c1ccc(F)cc1,"inconclusive [activator, full curve, poor fit]"
7,CCN1CCN(c2nc3sc4c(c3c3ncnn23)CC(C)CC4)CC1 (stereo not given),"inconclusive [activator, single point]"
8,CC(=O)/C(C#N)=C1\NC(=O)C(Cc2ccc(C)c(Cl)c2)S1 (stereo not given),"inconclusive [activator, single point]"
9,CN(C(=O)Cc1c(C(=O)O)n(C)c2ccccc12)c1ccc(F)cc1,inactive
10,CCOc1ccccc1C(=O)NCC(=O)NCCCSc1ccccc1,inactive
11,COc1ccc(S(=O)(=O)NCCc2cn3nc(C)c(C)nc3n2)cc1F,"inconclusive [activator, partial curve, poor fit]"
12,C/C(=N/NC(=O)c1ccc(C)s1)c1cccc(NC(=O)COc2ccc(Cl)cc2C)c1,"inconclusive [activator, partial curve, poor fit]"
13,CCc1cc(OCCOCCN(C)C)ccc1Cl,"inconclusive [activator, partial curve]"
14,Cc1cc2nc(/N=C(\N)NC(=O)C(C)C)nc(C)c2cc1C,inactive
15,CC(C(=O)Nc1ccc(F)cc1Cl)N1CCN(S(=O)(=O)c2cccs2)CC1 (stereo not given),"inconclusive [activator, full curve, poor fit]"
16,Cn1nnnc1SCC(=O)N(C1CCCCC1)C1CCS(=O)(=O)C1 (stereo not given),inactive
17,CCC1(c2ccccc2)ON(c2c(Br)cccc2Br)C1=O (stereo not given),active: 11.6 µM
18,COc1ccc(OC)c(-n2nnnc2SCC(=O)NCCc2ccccc2)c1,active: 5.8 µM
19,Cc1ccc(N(CC(O)CN2CCCC2)S(=O)(=O)c2ccc(C)cc2)cc1 (stereo not given),inactive
20,COCCn1c(=O)[nH]c(=O)c2c1nc(-c1cc(Br)c3c(c1)OCO3)n2Cc1ccccc1,"inconclusive [activator, partial curve, poor fit]"
21,O=C(NCc1ccncc1)Nc1cccc([N+](=O)[O-])c1,"inconclusive [activator, partial curve, poor fit]"
22,O=C(Nc1ccccc1OC(=O)c1ccccc1)c1ccccc1,"inconclusive [activator, single point]"
